# Assay results taken from the supplement of paper PMC10126150.
# Values marked as one replicate rest on one cluster of the flow cell; about a third of the high ones do not repeat.
# Tested on: ATP
# Assay: switch fluorescence ratio, 500 uM ATP over buffer (Cy3 cluster intensity, sum of 5 cycles each) (fold (ratio)); higher = stronger signal-on switching upon ATP binding; sequences stand for … in TCGTCGGCAGCGTCAGATGTGTATAAGAGACAGTTTTTTTTTTTTTTTTTTTTTTTTT…TC
# Settings: aptamer strand: ATP DNA aptamer (quencher-CACCTGGGGGAGTATTGCGGAGGAAGG + anchor), 100 nM annealed; ATP concentration: 500 uM; one replicate
# In short: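 Exposure to 500 uM ATP lasted 15 min at 22 °C before imaging, and a selection-buffer image was taken beforehand, for Cy3-labelled switching-strand clusters on a modified Illumina MiSeq flow-cell annealed to 100 nM quencher-labelled ATP aptamer. Five buffer/ATP cycles were run with NaOH stripping and re-annealing between them. The fluorescence ratio per cluster is summed target-cycle over summed buffer-cycle Cy3 intensity, averaged per switch-domain sequence. Clusters outside 100-1000 RFU were excluded.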
row,Sequence,switch fluorescence ratio
1,GGTAATATGC,1.01
2,GGTAATCCGA,0.975
3,GGTAATGGCC,1.01
4,GGTAATTCGT,0.978
5,GGTACACGTA,1.04
6,GGTACCGCGG,0.994
7,GGTACCTCGA,1
8,GGTACGACTT,1.02
9,GGTACGAGAT,1.02
10,GGTACGCTG,0.978
11,GGTACGGGC,1.04
12,GGTACGGTCG,1.03
13,GGTACTAGGA,1.01
14,GGTACTCCAA,1.05
15,GGTACTTCAT,1.03
16,GGTACTTGG,1.03
17,GGTAGCCAGG,1.04
18,GGTAGGAATC,1.02
19,GGTAGGAATT,1.53
20,GGTAGGAGTC,0.975
21,GGTAGGCTCG,0.949
22,GGTAGGGATT,0.978
23,GGTAGGGCTT,0.964
24,GGTAGGGTCC,0.946
25,GGTAGGTGAT,1
26,GGTAGGTTAC,1.04

row,Sequence,switch fluorescence ratio
1,GGTAGTAAAG,0.971
2,GGTAGTCACC,0.979
3,GGTAGTGAGA,0.972
4,GGTAGTGATC,1
5,GGTAGTGCCA,0.989
6,GGTAGTTAGA,0.985
7,GGTATAAGTC,1.04
8,GGTATACGAT,0.977
9,GGTATAGCGT,0.995
10,GGTATATGGA,1.04
11,GGTATCAGCA,1.01
12,GGTATGGAGA,0.968
13,GGTATTACCG,0.956
14,GGTATTTTTC,1.03
15,GGTCAACAGA,1.01
16,GGTCAAGGGA,1.01
17,GGTCAATAAT,1
18,GGTCACGGTC,1.01
19,GGTCACGT,0.964
20,GGTCACGTCA,1.01
21,GGTCACTTG,0.98
22,GGTCAGAGT,0.976
23,GGTCAGCCGC,1.01
24,GGTCAGTAGG,0.995
25,GGTCATAACA,1.04
26,GGTCATCCAC,1.02

row,Sequence,switch fluorescence ratio
1,GGTCATGCAT,0.991
2,GGTCCAGG,1.37
3,GGTCCATCGT,0.954
4,GGTCCATCTT,1.02
5,GGTCCATTCC,1.06
6,GGTCCGAGGG,1.04
7,GGTCCTGCTC,0.975
8,GGTCGACACA,1.03
9,GGTCGAGGAC,1.02
10,GGTCGCCCCA,0.989
11,GGTCGCCCGG,0.988
12,GGTCGCGTTG,1.02
13,GGTCGGCCAT,1.01
14,GGTCGGTTAT,1.07
15,GGTCGTCCCA,1.11
16,GGTCGTGGGC,0.915
17,GGTCTAAGTT,0.933
18,GGTCTACAAC,1
19,GGTCTATCTG,0.953
20,GGTCTATGTT,0.967
21,GGTCTATTAT,1.01
22,GGTCTCACTA,0.964
23,GGTCTCCGA,1.01
24,GGTCTGGAGT,1.01
25,GGTCTGTTTA,0.978
26,GGTGAACAAG,0.966

row,Sequence,switch fluorescence ratio
1,GGTGAACTGA,1.01
2,GGTGAGAGTA,0.959
3,GGTGATAAGG,1.01
4,GGTGATAC,1.54
5,GGTGATTCTC,0.998
6,GGTGCAATGG,4.89
7,GGTGCCTTCT,0.971
8,GGTGCGAAGT,0.983
9,GGTGCGTCTA,1.04
10,GGTGCTAGCT,0.999
11,GGTGCTCCGG,1.06
12,GGTGGAATAT,1.03
13,GGTGGACCGT,0.987
14,GGTGGAGCGA,1.04
15,GGTGGATTAC,1.04
16,GGTGGCCGCG,0.979
17,GGTGGCTAAG,1.01
18,GGTGGGATTG,1.04
19,GGTGGGCCGG,0.998
20,GGTGGGGCAT,0.989
21,GGTGGTAGGT,0.997
22,GGTGGTGG,1.01
23,GGTGGTGTT,1.01
24,GGTGTAACCC,0.982
25,GGTGTAGCAT,0.996
26,GGTGTAGCGT,1.1

row,Sequence,switch fluorescence ratio
1,GGTGTAGCTG,0.981
2,GGTGTAGTTT,0.945
3,GGTGTATATC,0.976
4,GGTGTATCCA,0.998
5,GGTGTCTTGA,1.01
6,GGTGTGCCTG,0.956
7,GGTGTGTGGA,1.01
8,GGTGTTAGCA,0.98
9,GGTGTTCAAG,0.981
10,GGTTAAATCT,1.03
11,GGTTAACTA,1.01
12,GGTTAATATA,1.01
13,GGTTAATCAC,0.981
14,GGTTAATGT,0.994
15,GGTTACAAAA,1.02
16,GGTTACGTCA,1.09
17,GGTTACTACA,1
18,GGTTACTCCC,1.76
19,GGTTAGTTTT,0.994
20,GGTTATACGC,1.02
21,GGTTCAAAAA,1.02
22,GGTTCACCTC,0.953
23,GGTTCAGTTT,0.994
24,GGTTCATATG,1.04
25,GGTTCATCGC,1.04
26,GGTTCCCTAA,1.01

row,Sequence,switch fluorescence ratio
1,GGTTCCGAAG,1.04
2,GGTTCCTCCT,1.34
3,GGTTCGCT,1
4,GGTTCGGGAG,1.04
5,GGTTCGTGTT,0.949
6,GGTTCTAATT,0.931
7,GGTTGAATAA,0.945
8,GGTTGACTAT,0.999
9,GGTTGAGCGC,1.1
10,GGTTGCAAAG,0.963
11,GGTTGCTATT,0.978
12,GGTTGGCGAG,0.986
13,GGTTGGCGTA,0.979
14,GGTTGGGCCG,0.985
15,GGTTGGGCGC,1.01
16,GGTTGTCTAG,0.969
17,GGTTTGGCCG,1.21
18,GGTTTTACCG,0.993
19,GGTTTTACGA,1
20,GGTTTTCCAA,0.954
21,GGTTTTCTAC,0.985
22,GGTTTTGTGA,1.01
23,GGTTTTTATA,0.999
24,GTAAAAAGGG,0.981
25,GTAAAAGGCA,1.01
26,GTAAAATGGT,1

row,Sequence,switch fluorescence ratio
1,GTAAACATAC,0.917
2,GTAAACTACT,1.02
3,GTAAAGAGAC,0.973
4,GTAAATTTAG,0.979
5,GTAACATTGT,0.981
6,GTAACTAGCT,0.986
7,GTAAGAGTGG,0.942
8,GTAAGCCTTT,0.985
9,GTAAGGATTC,0.991
10,GTAAGGGCCA,1.01
11,GTAAGTACGT,1.24
12,GTAAGTTACG,0.992
13,GTAAGTTTAA,1.02
14,GTAAGTTTGA,0.973
15,GTAATAGAAT,0.973
16,GTAATGAAAA,0.995
17,GTAATGGGAT,0.979
18,GTAATTGGAA,0.988
19,GTAATTGGG,1
20,GTAATTTTAG,0.971
21,GTACAGGAGG,1.02
22,GTACCCATGA,1.02
23,GTACCCCGGA,0.979
24,GTACCCTGAC,1.38
25,GTACGAGCGT,1.01
26,GTACGCAGAG,1.27

row,Sequence,switch fluorescence ratio
1,GTACGGGCTG,0.967
2,GTACGTAAGA,1.37
3,GTACGTTGTA,0.981
4,GTACTAGTTT,0.993
5,GTACTTTCCA,0.965
6,GTAGAAAGGT,0.971
7,GTAGACAGT,1.02
8,GTAGACGTGG,0.964
9,GTAGACGTTG,0.974
10,GTAGAGCGAA,1.03
11,GTAGATAAAC,1.04
12,GTAGATGCAC,1.03
13,GTAGATGGGG,1.01
14,GTAGCCAACT,1.05
15,GTAGCCCGAG,1.02
16,GTAGCGCACG,1.05
17,GTAGCGCTTT,1.01
18,GTAGCTAGTT,1.03
19,GTAGCTTCTC,1.55
